# From the supplement of paper PMC12217912
# This is one part of the list. The full chains were built here from the parent and the listed change. Inactive controls read about 0.05.
# B1: TEV protease; numbered along this chain (parent)
# chain: MGESLFKGPRDYNPISSSICHLTNESDGHTTSLYGIGFGPFIITNKHLFRRNNGTLVVQSLHGVFKVKDTTTLQQHLVDGRDMIIIRMPKDFPPFPQKLKFREPQREERICLVTTNFQTKSMSSMVSDTSCTFPSGDGIFWKHWIQTKDGQCGSPLVSTRDGFIVGIHSASNFTNTNNYFTSVPKNFMELLTNQEAQQWVSGWRLNADSVLWGGHKVFMVKPEEPFQPVKEATQL
# Variants of: B1
# Test: raw area under fraction-flipped curve 0-4 h after induction (AUC4h, not background-subtracted), DNA-recorder readout of cleavage of the substrate (dimensionless); higher = more cleavage of the substrate by the protease variant
# Conditions: temperature: 34 °C; time window: 0-4 h after rhamnose induction
# Method: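 In vivo DNA recorder in E. coli TOP10(DE3) ΔrhaA at 34 °C. Each TEVp single-site mutant (parent TEVp 0) is paired with a single-site variant of the 7-mer TEVs (canonical ENLYFQ|S). The substrate sits between flexible linkers in a Bxb1-sfGFP-TEVs-SsrA fusion, so cleavage stabilises Bxb1 and speeds flipping of a recombination array, read by NGS. The value is the raw area under the fraction-flipped curve over 0-4 h after rhamnose induction (AUC4h), with ≥20 reads per time point. It is not background-subtracted; inactive controls average about 0.047.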
# 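Also: Bxb1 expression induced with 0.2% (w/v) L-rhamnose at OD600 near 0.5, cultures sampled hourly, flipped fraction per protease–substrate barcode pair counted by paired-end Illumina sequencing.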
variant,measurement,value
MGESLFKGPRDYNPISSSICHLTNESDGHTTSLYGIGFGPFIITNKHLFRRNNGTLVVQSLHGVFKVKDTTTLQQHLVDGRDMIIIRMPKDFPPFPQKLKFREPQREERICLVTTNFQTKSMSSMVSDTSCTFPSGDGIFWKHWIQTKDGQCGSPLVSTRDGFIVGIHSASNFTNTNNYFTSVPKNFMELLTNQEAQQWVSGWRLNADSVLWGGHKVFMVKPEEPFQPPKEATQL [V229P],area with substrate ENLYAQS,0.0569
same,area with substrate ENLYCQS,0.0871
same,area with substrate ENLYDQS,0.0606
same,area with substrate ENLYEQS,0.0727
same,area with substrate ENLYGQS,0.0634
same,area with substrate ENLYIQS,0.156
same,area with substrate ENLYKQS,0.0615
same,area with substrate ENLYMQS,0.0902
same,area with substrate ENLYNQS,0.0664
same,area with substrate ENLYPQS,0.0686
same,area with substrate ENLYQQS,0.0579
same,area with substrate ENLYVQS,0.114
same,area with substrate ENLYWQS,0.0818
MGESLFKGPRDYNPISSSICHLTNESDGHTTSLYGIGFGPFIITNKHLFRRNNGTLVVQSLHGVFKVKDTTTLQQHLVDGRDMIIIRMPKDFPPFPQKLKFREPQREERICLVTTNFQTKSMSSMVSDTSCTFPSGDGIFWKHWIQTKDGQCGSPLISTRDGFIVGIHSASNFTNTNNYFTSVPKNFMELLTNQEAQQWVSGWRLNADSVLWGGHKVFMVKPEEPFQPVKEATQL [V157I],area with substrate ENLYAQS,0.085
same,area with substrate ENLYDQS,0.0738
same,area with substrate ENLYEQS,0.0951
same,area with substrate ENLYGQS,0.063
same,area with substrate ENLYHQS,0.0665
same,area with substrate ENLYIQS,0.124
same,area with substrate ENLYKQS,0.0683
same,area with substrate ENLYLQS,0.058
same,area with substrate ENLYNQS,0.0583
same,area with substrate ENLYPQS,0.0763
same,area with substrate ENLYQQS,0.0602
same,area with substrate ENLYRQS,0.0647
same,area with substrate ENLYSQS,0.063
same,area with substrate ENLYVQS,0.107
same,area with substrate ENLYYQS,0.0631
MGESLFKGHRDYNPISSSICHLTNESDGHTTSLYGIGFGPFIITNKHLFRRNNGTLVVQSLHGVFKVKDTTTLQQHLVDGRDMIIIRMPKDFPPFPQKLKFREPQREERICLVTTNFQTKSMSSMVSDTSCTFPSGDGIFWKHWIQTKDGQCGSPLVSTRDGFIVGIHSASNFTNTNNYFTSVPKNFMELLTNQEAQQWVSGWRLNADSVLWGGHKVFMVKPEEPFQPVKEATQL [P9H],area with substrate ENLYAQS,0.111
same,area with substrate ENLYDQS,0.0639
same,area with substrate ENLYEQS,0.0685
same,area with substrate ENLYGQS,0.081
same,area with substrate ENLYHQS,0.095
same,area with substrate ENLYIQS,0.128
same,area with substrate ENLYKQS,0.134
same,area with substrate ENLYNQS,0.0628
same,area with substrate ENLYRQS,0.0684
same,area with substrate ENLYSQS,0.0813
same,area with substrate ENLYVQS,0.14
same,area with substrate ENLYWQS,0.0923
same,area with substrate ENLYYQS,0.0639
MGESLFKGPRDYNPISSSICHLTNESDGHTTSLYGIGFGPFIITNDHLFRRNNGTLVVQSLHGVFKVKDTTTLQQHLVDGRDMIIIRMPKDFPPFPQKLKFREPQREERICLVTTNFQTKSMSSMVSDTSCTFPSGDGIFWKHWIQTKDGQCGSPLVSTRDGFIVGIHSASNFTNTNNYFTSVPKNFMELLTNQEAQQWVSGWRLNADSVLWGGHKVFMVKPEEPFQPVKEATQL [K46D],area with substrate ENLYAQS,0.0719
same,area with substrate ENLYDQS,0.0528
same,area with substrate ENLYGQS,0.0535
same,area with substrate ENLYHQS,0.05
same,area with substrate ENLYIQS,0.0953
same,area with substrate ENLYKQS,0.0843
same,area with substrate ENLYLQS,0.0769
same,area with substrate ENLYMQS,0.062
same,area with substrate ENLYNQS,0.0594
same,area with substrate ENLYQQS,0.0668
same,area with substrate ENLYRQS,0.0586
same,area with substrate ENLYSQS,0.0611
same,area with substrate ENLYVQS,0.0541
same,area with substrate ENLYYQS,0.0614
MGESLFIGPRDYNPISSSICHLTNESDGHTTSLYGIGFGPFIITNKHLFRRNNGTLVVQSLHGVFKVKDTTTLQQHLVDGRDMIIIRMPKDFPPFPQKLKFREPQREERICLVTTNFQTKSMSSMVSDTSCTFPSGDGIFWKHWIQTKDGQCGSPLVSTRDGFIVGIHSASNFTNTNNYFTSVPKNFMELLTNQEAQQWVSGWRLNADSVLWGGHKVFMVKPEEPFQPVKEATQL [K7I],area with substrate ENLYAQS,0.0441
same,area with substrate ENLYDQS,0.062
same,area with substrate ENLYEQS,0.024
same,area with substrate ENLYGQS,0.0482
same,area with substrate ENLYIQS,0.0775
same,area with substrate ENLYKQS,0.0671
same,area with substrate ENLYPQS,0.0541
same,area with substrate ENLYRQS,0.0577
same,area with substrate ENLYSQS,0.0717
same,area with substrate ENLYVQS,0.0692
same,area with substrate ENLYWQS,0.0611
MGESLFKGPRDYNPISSSICHLTNESDGHTTSLYGIGFGPFIITNKHLFRRNNGTLVVQSLHGVFKVKDTTTLQQHLVDGRDMIIIRMPKDFPPFPQKLKFREPQREERICLVTTNFQTKSMSSMVSDTSCTFPSGDGIFWKHWIQTKDGQCGSPLVSTRDGFIVGIHSASNFHNTNNYFTSVPKNFMELLTNQEAQQWVSGWRLNADSVLWGGHKVFMVKPEEPFQPVKEATQL [T174H],area with substrate ENLYAQS,0.0618
same,area with substrate ENLYCQS,0.042
same,area with substrate ENLYEQS,0.0662
same,area with substrate ENLYGQS,0.073
same,area with substrate ENLYHQS,0.0238
same,area with substrate ENLYIQS,0.0913
same,area with substrate ENLYKQS,0.0623
same,area with substrate ENLYMQS,0.0774
same,area with substrate ENLYNQS,0.055
same,area with substrate ENLYPQS,0.0604
same,area with substrate ENLYRQS,0.0641
same,area with substrate ENLYSQS,0.0701
same,area with substrate ENLYTQS,0.0354
same,area with substrate ENLYYQS,0.0562
MGESLFKGPRDYNPISSSICHLTNESDGHTTSLYGIGFGPFIITNKHLFRRNNGTLVVQSLHGVFKVKDTTTLQQHLVDGRDMIIIRMPKDFPPFPQKLKFREPQREERICLVTTNFQTKSMSSMVSDTSCTFPSGDGIFWKHWIQTKDGQCGSPLVSTRDGFIVGIHSASNFTNTNNYFTSVPKNFMELLTNMEAQQWVSGWRLNADSVLWGGHKVFMVKPEEPFQPVKEATQL [Q194M],area with substrate ENLYAQS,0.0727
same,area with substrate ENLYCQS,0.0802
same,area with substrate ENLYDQS,0.0488
same,area with substrate ENLYEQS,0.0809
same,area with substrate ENLYGQS,0.069
same,area with substrate ENLYHQS,0.0531
same,area with substrate ENLYKQS,0.0425
same,area with substrate ENLYLQS,0.117
same,area with substrate ENLYNQS,0.0766
same,area with substrate ENLYRQS,0.0652
same,area with substrate ENLYSQS,0.102
MGESLFKGPRDYNPISSSICHLTNESDGHTTSLYGIGFGPFIITNKHLFRRNNGTLVVQSLHGVFKVKDTTTLQQHLVDGRDMIIIRMPKDFPPFPQKLKFREPQREERICLVTTNFQTKSMSSMVSDTSCTFPSGDGIFWKHWIQTKDGQCGSPLVSTRDGFIVGIHSASNFTNTNNYFTSSPKNFMELLTNQEAQQWVSGWRLNADSVLWGGHKVFMVKPEEPFQPVKEATQL [V183S],area with substrate ENLYAQS,0.0581
same,area with substrate ENLYEQS,0.0704
same,area with substrate ENLYGQS,0.0689
same,area with substrate ENLYHQS,0.045
same,area with substrate ENLYKQS,0.0875
same,area with substrate ENLYMQS,0.0641
same,area with substrate ENLYNQS,0.0717
same,area with substrate ENLYPQS,0.0688
same,area with substrate ENLYSQS,0.0639
same,area with substrate ENLYVQS,0.102
same,area with substrate ENLYWQS,0.0728
MGESLFKGPRDYNPISSSICHLTNESDGHTTSLYGIGFGPFIITNKHLFRRNNGTLVVQSLHGVFKVKDTTTLQQHLVDGRDMIIIRMPKDFPPFPQKLKFREPQREERIVLVTTNFQTKSMSSMVSDTSCTFPSGDGIFWKHWIQTKDGQCGSPLVSTRDGFIVGIHSASNFTNTNNYFTSVPKNFMELLTNQEAQQWVSGWRLNADSVLWGGHKVFMVKPEEPFQPVKEATQL [C111V],area with substrate ENLYAQS,0.0798
same,area with substrate ENLYDQS,0.046
same,area with substrate ENLYEQS,0.0619
same,area with substrate ENLYGQS,0.0521
same,area with substrate ENLYHQS,0.054
same,area with substrate ENLYIQS,0.126
same,area with substrate ENLYKQS,0.0576
same,area with substrate ENLYNQS,0.0697
same,area with substrate ENLYRQS,0.0662
same,area with substrate ENLYVQS,0.0897
same,area with substrate ENLYWQS,0.127
same,area with substrate ENLYYQS,0.0711
